{"source": "PubChem BioAssay AID504845", "about": "(National Center for Advancing Translational Sciences (NCATS), 2011)", "note": "“And” between values parts separate entries of the source, which are not always exact repeats. Equal entries are not always repeated. Hit rate of the full screen: of about 390,000 compounds, about 150 (0.038%) were called active. The shares of active, inactive and inconclusive entries below differ from those in the screen. Calls come from the whole dose curve; as a rule, active = well fitted inhibition curve with a large enough effect; inconclusive = small, poorly fitted or top-dose-only effect; inactive = no such curve, though single readings can be large or run the other way. Potencies of inconclusive entries are doubtful fits and often do not repeat. Potency is the fitted concentration of half-maximal effect; tags give direction and shape of the fitted curve.", "data": [{"target": "Regulator of G-protein signaling 4 (Homo sapiens) (UniProt P49798)", "sequence (P49798 whole entry, looked up)": "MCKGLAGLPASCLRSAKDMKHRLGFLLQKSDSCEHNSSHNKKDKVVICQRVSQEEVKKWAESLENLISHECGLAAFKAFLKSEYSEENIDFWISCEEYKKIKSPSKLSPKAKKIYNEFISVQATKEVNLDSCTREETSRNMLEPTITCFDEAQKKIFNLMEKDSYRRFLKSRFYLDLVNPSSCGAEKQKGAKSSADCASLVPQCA", "assay": "Inhibitors of Regulator of G Protein Signaling (RGS) 4: qHTS; note: nearly all actives have a fitted effect of over 75% in size", "details": "Transcreener GDP fluorescence polarization, RGS4-accelerated GTP hydrolysis; series mostly up to 114 µM", "method_in_brief": "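MLSMR compounds (23 nl, pin-transferred) preincubated 10 min at room temperature with a 500nM (2x) first reagent, then RGS4 at 900nM (2x) plus Transcreener GDP mix added; fluorescence polarization (620/688 nm) read before and after 90 min at 30 °C.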", "values": [{"molecule": "CC(=O)/C(=N/Nc1ccccc1)Sc1nnc(CCc2ccccc2)n1-c1ccccc1", "Potency": "inconclusive: 39.8 µM [inhibitor, partial curve, poor fit]"}, {"molecule": "COc1ccccc1/C=C/C(=O)NCCC1=CCCCC1", "Potency": "inactive"}, {"molecule": "NC(=O)C1(N2CCCCC2)CCN(C(=S)Nc2ccc(S(N)(=O)=O)cc2)CC1", "Potency": "inconclusive: 17.8 µM [inhibitor, full curve, poor fit]"}, {"molecule": "O=C(c1nn2c(C(F)(F)F)cc(-c3cccs3)nc2c1Cl)N1CCCc2ccccc21", "Potency": "inconclusive: 79.4 µM [inhibitor, partial curve, poor fit]"}, {"molecule": "BrC(=C\\c1ccccc1)/C=N/Nc1ccc2nncn2n1", "Potency": "inconclusive: 89.1 µM [inhibitor, single point]"}, {"molecule": "CN(C)c1nc(=NCc2ccco2)ss1", "Potency": "inconclusive: 31.6 µM [inhibitor, full curve, poor fit]"}, {"molecule": "COc1ccc(/C=N/NC(=O)c2cc(C)n(-c3ccccc3)c2C)cc1OC", "Potency": "inconclusive: 100 µM [inhibitor, partial curve, poor fit]"}, {"molecule": "COc1ccc(OCCN(C)CC(=O)Nc2ccccc2SC)cc1", "Potency": "inactive"}, {"molecule": "CC(C)(CO)NC(=S)NCc1ccco1", "Potency": "inconclusive: 70.8 µM [inhibitor, single point]"}, {"molecule": "Cc1cc(C)c(C(=O)CSc2nc(C)cc(=O)[nH]2)c(C)c1", "Potency": "inconclusive: 50.1 µM [inhibitor, partial curve, poor fit]"}, {"molecule": "COc1ccc(/C=C2\\SC(=S)N(NC(=O)c3csc4c3CCCC4)C2=O)cc1", "Potency": "inconclusive: 89.1 µM [inhibitor, single point]"}, {"molecule": "O=C(NC1CCCCC1)C(=S)NCCc1ccccc1", "Potency": "inconclusive: 79.4 µM [inhibitor, partial curve, poor fit]"}, {"molecule": "CC(C)(C)OC(=O)[C@H](Cc1ccccc1)NC(=O)c1nc[nH]c1C(=O)NCC(=O)OCc1ccccc1", "Potency": "inactive"}, {"molecule": "CCC(C)c1ccc(NC(=S)NCc2ccccn2)cc1", "note": "(stereo unspecified)", "Potency": "inconclusive: 17.8 µM [inhibitor, full curve, poor fit]"}, {"molecule": "CCN1CCN(C(=O)Nc2cccc3ccccc23)CC1", "Potency": "inconclusive: 70.8 µM [inhibitor, partial curve, poor fit]"}, {"molecule": "NC(=S)Cc1nc(-c2ccccc2)cs1", "Potency": "inconclusive: 44.7 µM [inhibitor, partial curve, poor fit]"}, {"molecule": "CCOC(=O)c1c(-c2cccs2)csc1NC(=O)CSc1ncn[nH]1", "Potency": "inactive"}, {"molecule": "CC(=O)c1cc2c(cc1NC(=O)CSc1ccc(S(=O)(=O)N(C)C)cn1)OCO2", "Potency": "inconclusive: 70.8 µM [inhibitor, partial curve, poor fit]"}, {"molecule": "CCCCC(=O)Nc1nc(C)c(-c2csc(Nc3ccccc3OC)n2)s1", "Potency": "inconclusive: 31.6 µM [inhibitor, full curve, poor fit]"}, {"molecule": "COc1ccc(C(=O)Nc2nnc(-c3ccccc3)s2)cc1", "Potency": "inactive"}, {"molecule": "Cc1ccc(-n2ncc(C#N)c2N)cc1", "Potency": "inactive"}, {"molecule": "Cc1nnc(Sc2cc(NCCCO)c([N+](=O)[O-])c3nonc23)s1", "Potency": "inconclusive: 31.6 µM [inhibitor, full curve, poor fit]"}, {"molecule": "CCc1nnc(NC(=O)CN2C(=O)/C(=C/c3cc(OC)c(OC)c(OC)c3)SC2=S)s1", "Potency": "inconclusive: 11.2 µM [inhibitor, full curve, poor fit]"}, {"molecule": "COc1ccc(S(=O)(=O)n2nc(OCc3cccs3)cc2N)cc1", "Potency": "inactive"}, {"molecule": "CN(C)c1ccc(/C=C2\\C(=O)Nc3ccccc32)cc1", "Potency": "inconclusive: 8.44 µM [inhibitor, partial curve, poor fit] and inconclusive: 670 nM [inhibitor, full curve, poor fit] and inconclusive: 21.2 µM [inhibitor, partial curve]"}, {"molecule": "N#C/C(=C/c1ccc(OCc2ccc(C(=O)O)cc2)cc1)C(=O)Nc1ccccc1", "Potency": "inconclusive: 89.1 µM [inhibitor, single point]"}, {"molecule": "O=S(=O)(c1ccc(=S)[nH]c1)N1CCOCC1", "Potency": "inconclusive: 31.6 µM [inhibitor, full curve, poor fit]"}, {"molecule": "CCCCCN(C(=O)CCC(=O)OCCOc1ccc(OC)cc1)c1c(N)n(CCCC)c(=O)[nH]c1=O", "Potency": "inconclusive: 89.1 µM [inhibitor, single point]"}, {"molecule": "CCOC(=O)c1c(NC(=O)CSc2nnc3c(n2)[nH]c2ccccc23)sc2c1CCN(C)C2", "Potency": "inconclusive: 79.4 µM [inhibitor, partial curve, poor fit]"}, {"molecule": "O=C(NC1CCCCCC1)C(=S)NCc1ccccc1", "Potency": "inconclusive: 79.4 µM [inhibitor, partial curve, poor fit]"}, {"molecule": "COc1ccc(Cn2c(C)c(C)c(C#N)c2NC(=O)Nc2cccc(Cl)c2)cc1", "Potency": "inconclusive: 50.1 µM [inhibitor, partial curve, poor fit]"}, {"molecule": "C=C(C)C(=O)Nc1cccc(C2=NOC3(C2)C[C@H](C(N)=O)N(C(=O)/C=C/C)C3)c1", "note": "(stereo partly specified)", "Potency": "inconclusive: 11.2 µM [inhibitor, full curve, poor fit]"}, {"molecule": "CN=c1scc(-c2cccs2)n1/N=C/c1ccc(O)c(O)c1O", "Potency": "inconclusive: 79.4 µM [inhibitor, partial curve, poor fit]"}, {"molecule": "O=C(Oc1ccc(Br)cc1C(=S)N1CCOCC1)c1ccc([N+](=O)[O-])cc1[N+](=O)[O-]", "Potency": "inconclusive: 56.2 µM [inhibitor, partial curve, poor fit]"}, {"molecule": "O=C(NN1C(=O)/C(=C/c2ccc(O)c([N+](=O)[O-])c2)SC1=S)c1ccccc1Cl", "Potency": "inconclusive: 50.1 µM [inhibitor, partial curve, poor fit]"}, {"molecule": "N#Cc1cc2c(nc1SCC(=O)N1CCCCC1)CCCCC2", "Potency": "inconclusive: 79.4 µM [inhibitor, partial curve, poor fit]"}, {"molecule": "CCOC(=O)c1ccc(NC(=O)c2ccc(-c3cccc(Cl)c3C)o2)cc1", "Potency": "inconclusive: 28.2 µM [inhibitor, full curve, poor fit]"}, {"molecule": "CCC(CO)Oc1cc(NCc2ccccc2)c2ncn(C(C)C)c2c1", "note": "(stereo unspecified)", "Potency": "inconclusive: 50.1 µM [inhibitor, partial curve, poor fit]"}, {"molecule": "O=[N+]([O-])c1cc2c(c3cccnc13)COCO2", "Potency": "inactive"}, {"molecule": "Cc1nc(N=Nc2ccc(S(=O)(=O)O)cc2S(=O)(=O)O)c(COP(=O)(O)O)c(C=O)c1O", "Potency": "inactive"}, {"molecule": "CCCn1c(=N)c(S(=O)(=O)c2ccccc2)cc2c(=O)n3ccccc3nc21", "Potency": "inactive"}, {"molecule": "CC(=O)C1=C(C)NC(SCc2cccc3ccccc23)=C(C#N)C1c1ccco1", "note": "(stereo unspecified)", "Potency": "inconclusive: 79.4 µM [inhibitor, partial curve, poor fit]"}, {"molecule": "COc1cccc(CNS(=O)(=O)c2ccccc2Br)c1OC", "Potency": "inconclusive: 50.1 µM [inhibitor, partial curve, poor fit]"}, {"molecule": "CC(C)Oc1cccc(C(=O)Nc2ccc3oc(-c4ccccc4)nc3c2)c1", "Potency": "inactive"}, {"molecule": "O=C(Cc1ccc(Cl)cc1)NNC(=O)c1cnccn1", "Potency": "inconclusive: 50.1 µM [inhibitor, partial curve, poor fit]"}, {"molecule": "CCCCC[C@H](CC(=O)NO)C(=O)N[C@H](C(=O)N1CCC[C@H]1CO)C(C)C", "Potency": "inconclusive: 2.67 µM [inhibitor, partial curve, poor fit]"}, {"molecule": "Cc1ccc(NC(=O)C2CCCN(S(=O)(=O)c3c(C)noc3/C=C/N(C)C)C2)c(C)c1", "note": "(stereo unspecified)", "Potency": "inactive"}, {"molecule": "Cc1ccc(NC(=O)c2ccco2)c([N+](=O)[O-])c1", "Potency": "inconclusive: 100 µM [inhibitor, partial curve, poor fit]"}, {"molecule": "CCOC(=O)c1cc2c(=O)n3ccccc3nc2n(Cc2ccco2)c1=NC(=O)c1ccc(OC)cc1OC", "Potency": "inconclusive: 31.6 µM [inhibitor, partial curve, poor fit]"}, {"molecule": "CCOc1ccccc1CNC(=O)CCn1cccn1", "Potency": "inactive"}, {"molecule": "CCN1/C(=C/C(C)=O)Sc2ccc(OC)cc21", "Potency": "inconclusive: 37.7 µM [inhibitor, single point]"}, {"molecule": "COc1cccc(CN(C)C(=O)CC23CC4CC(CC(C4)C2)C3)c1OC", "Potency": "inconclusive: 70.8 µM [inhibitor, single point]"}, {"molecule": "CCOc1cc(CNCCO)ccc1OCC(=O)NC(C)(C)C", "Potency": "inconclusive: 100 µM [inhibitor, partial curve, poor fit]"}, {"molecule": "CCc1cc(=O)[nH]c(-n2[nH]c(-c3ccccc3)cc2=O)n1", "Potency": "inconclusive: 44.7 µM [inhibitor, partial curve, poor fit]"}, {"molecule": "C[C@H]1c2cccc(O)c2C(O)=C2C(=O)[C@]3(O)C(O)=C(C(N)=O)C(=O)[C@@H](N(C)C)[C@@H]3[C@@H](O)[C@@H]21", "Potency": "inconclusive: 23.8 µM [inhibitor, partial curve]"}, {"molecule": "CCN(CC)C(=O)CSc1nnc(COc2ccccc2)n1CC", "Potency": "inconclusive: 89.1 µM [inhibitor, single point]"}, {"molecule": "Cc1ccc(-c2[nH]ncc2/C=C(\\C#N)C(=O)NC2CCCCC2)cc1", "Potency": "inactive"}, {"molecule": "C/C(CC(=O)NCc1ccc(F)cc1)=N\\NC(N)=S", "Potency": "inconclusive: 70.8 µM [inhibitor, single point]"}, {"molecule": "O=C1[C@@H]2[C@@H](CN3CN(c4ccccc4)N=C(c4ccccc4)[C@@]23c2ccccc2)C(=O)N1c1ccccc1", "Potency": "inconclusive: 89.1 µM [inhibitor, single point]"}, {"molecule": "Cc1cc(C)cc(NC(=O)c2ccc(Cn3nc(C)c(Cl)c3C)o2)c1", "Potency": "inactive"}, {"molecule": "Cc1ccc2[nH]c(=O)c(C(c3nnnn3Cc3ccccc3)N3CCc4ccccc43)cc2c1", "note": "(stereo unspecified)", "Potency": "inconclusive: 100 µM [inhibitor, single point]"}]}]}
